This note sets out measurements from article PMC4336329 (PLoS ONE, 2015).

Screen size: about 310,000 compounds; about 14,000 (4.5%) showed an effect of 50% or more. The effect is printed as a negative number. Some of the results follow.
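Note: peak tail current of the secondary pulse compared with the same well before compound.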

Sequence of human ether-à-go-go-related gene (hERG) potassium channel (Q12809 whole entry, looked up): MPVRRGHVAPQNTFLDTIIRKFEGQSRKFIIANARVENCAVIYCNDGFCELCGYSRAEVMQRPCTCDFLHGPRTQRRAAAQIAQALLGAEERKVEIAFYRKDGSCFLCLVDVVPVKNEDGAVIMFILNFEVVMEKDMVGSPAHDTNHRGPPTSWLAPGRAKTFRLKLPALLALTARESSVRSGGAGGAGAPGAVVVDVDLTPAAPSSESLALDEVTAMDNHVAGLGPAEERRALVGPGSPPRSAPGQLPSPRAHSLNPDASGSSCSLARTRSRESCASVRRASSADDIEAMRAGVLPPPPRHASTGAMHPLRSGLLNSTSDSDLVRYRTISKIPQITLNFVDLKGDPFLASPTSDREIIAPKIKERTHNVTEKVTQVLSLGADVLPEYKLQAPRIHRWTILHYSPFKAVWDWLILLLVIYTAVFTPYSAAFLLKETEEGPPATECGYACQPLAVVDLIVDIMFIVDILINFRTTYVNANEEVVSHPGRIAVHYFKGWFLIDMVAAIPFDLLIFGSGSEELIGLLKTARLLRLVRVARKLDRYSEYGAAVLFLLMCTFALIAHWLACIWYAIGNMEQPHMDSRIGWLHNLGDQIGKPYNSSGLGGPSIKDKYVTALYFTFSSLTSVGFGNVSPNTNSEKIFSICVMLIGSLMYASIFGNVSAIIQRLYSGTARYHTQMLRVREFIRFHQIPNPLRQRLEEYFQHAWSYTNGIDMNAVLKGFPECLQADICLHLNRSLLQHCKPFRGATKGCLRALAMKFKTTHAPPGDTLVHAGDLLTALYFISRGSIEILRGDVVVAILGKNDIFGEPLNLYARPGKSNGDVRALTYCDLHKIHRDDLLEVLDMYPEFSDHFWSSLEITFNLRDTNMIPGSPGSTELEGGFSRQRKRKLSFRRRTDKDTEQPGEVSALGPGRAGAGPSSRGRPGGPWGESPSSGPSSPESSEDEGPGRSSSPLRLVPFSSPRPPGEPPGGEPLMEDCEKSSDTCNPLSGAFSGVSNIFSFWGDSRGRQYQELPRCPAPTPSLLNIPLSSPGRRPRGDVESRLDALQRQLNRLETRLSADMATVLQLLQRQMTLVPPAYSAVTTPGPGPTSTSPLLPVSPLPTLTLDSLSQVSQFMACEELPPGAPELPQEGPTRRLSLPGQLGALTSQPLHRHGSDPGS

This assay addresses human ether-à-go-go-related gene (hERG) potassium channel (human, UniProt Q12809). The assay can be described thus: primary screen, population patch clamp on CHO cells stably expressing hERG.
On to `C/C=C/C(=O)OCC(=O)Nc1cccc(F)c1`, for which the “hERG current change (%, negative = inhibition) at 10uM” value is 15.3%.

As to `COCCn1c(N)c(N(Cc2ccccc2)C(=O)C2=COCCO2)c(=O)[nH]c1=O`, the “hERG current change (%, negative = inhibition) at 10uM” value was 23.4%.

On to `O=C(CCCn1c(SCC(=O)c2ccc(F)cc2)nc2ccccc2c1=O)NCc1ccccc1`, for which the “hERG current change (%, negative = inhibition) at 10uM” value was determined as 1.75%. The result for `COCCN(C(=O)C(C)C)c1nnc(-c2cccc(C)c2)s1` reads -19.2%; that for `Cc1c(Cl)c(C(=O)N2CCCc3ccccc32)nn1C`, 5.91%; that for `CC1(C)C2CCC1(CS(=O)(=O)NCc1ccc(C(F)(F)F)cc1)C(=O)C2` (stereo not drawn), -12.2%.

Consider `FC(F)Oc1ccc(-c2csc(=Nc3cccnc3)n2CC2CCCO2)cc1` (stereo not drawn), for which the “hERG current change (%, negative = inhibition) at 10uM” value is on record as -27.9%. The result for `COc1cc(C[C@H](C)[C@H](C)Cc2ccc3c(c2)OCO3)ccc1O` reads -4.04%; that for `O=C1c2ccccc2C(=O)C1c1ccncc1`, 16.4%; that for `NS(=O)(=O)c1ccc(CNC(=O)/C=C/c2ccc(Cl)c(Cl)c2)cc1`, -1.77%. The result for `CN1C[C@@H]2C(c3ccc(C(F)(F)F)cc3)C3(c4ccc(C#N)cc4)CC2(C3)[C@H]1c1ccccc1` (stereo partly drawn) reads 9.92%; that for `O=C(Nc1ccccc1N1CCCC1)C1CC(=O)N(Cc2ccccc2)C1` (stereo not drawn), -44.4%. For the molecule `COc1ccc(NS(=O)(=O)c2ccc(N3CCCC3)c(NC(=S)Nc3cccc(C)c3C)c2)cc1`, the “hERG current change (%, negative = inhibition) at 10uM” value came to 2.21%.

`Cc1noc(/C=C/N(C)C)c1S(=O)(=O)N1CCCC(C(=O)NCc2ccco2)C1` (stereo not drawn): the “hERG current change (%, negative = inhibition) at 10uM” value is -22.6%. With `O=C(CCCN1C(=O)C(c2ccccc2)Oc2cccnc21)NCCc1ccc(Cl)cc1` (stereo not drawn), the “hERG current change (%, negative = inhibition) at 10uM” value was 14.8%. For the molecule `O=C1CSC(=Nc2ccccc2)N1Cc1ccccc1`, the “hERG current change (%, negative = inhibition) at 10uM” value is listed as -0.198%.

On to `Cl.NC(N)=NC(=O)c1nc(Cl)c(N)nc1N.O`, for which the “hERG current change (%, negative = inhibition) at 10uM” value is recorded as -0.314%. The same measure for `COC(=O)[C@H](Cc1ccccc1)NC(=O)N1CCN(Cc2ccccc2)CC1`: -58.6%. The result for `CC1(C)CC(=O)C(Sc2nnc(-c3ccc(O)cc3)n2CC2CCCO2)C(=O)C1` (stereo not drawn) reads 17.2%; that for `O=C(C[n+]1ccccc1)N/N=C/c1cc(Br)ccc1O.[Cl-]`, 15.2%. The same measure for `CC(C)(C)C1(c2ccccc2)NC(=O)N(CC(=O)N2CCOCC2)C1=O` (stereo not drawn): -8.71%; for `CN(C(=S)NC(=O)Cc1ccccc1)c1ccccc1`: 8.22%; for `C(=N\NC1=NCCN1)/c1ccncc1.Cl`: 11.9%. Turning to `O=C(c1ccco1)N1CCC(c2nc3ccccc3[nH]2)CC1`, the “hERG current change (%, negative = inhibition) at 10uM” value is on record as -5.9%. The result for `COC(=O)c1ccc(CN2[C@H](C(=O)OC)C[C@@]3(O)[C@H](O)[C@H](O)[C@H](O)C[C@@H]23)cc1` reads -16.2%. The same measure for `Cl.O=C(c1ccco1)N1CCN(C/C=C/c2ccccc2)CC1`: -38%; for `CN1CCN(C2=C(Cl)C(=O)N(C3CCCCC3)C2=O)CC1`: -24.2%; for `COc1ccc(CC[NH+](C)CCCN2CC(c3ccccc3)CC2=O)cc1OC.O=C([O-])C(=O)[O-]` (stereo not drawn): -71.1%.

Turning to `CC(C)NS(=O)(=O)c1ccc(NC(=O)C(C)OC(=O)C2CCC2)cc1` (stereo not drawn), the “hERG current change (%, negative = inhibition) at 10uM” value is given as 2.97%. The result for `Cl.NC(N)=Nc1nc(C2COc3ccccc3O2)cs1` (stereo not drawn) reads -11.7%; that for `O=C(C1CCN(Cc2ccc(F)cc2)CC1)N1CCN(C/C=C/c2ccccc2)CC1.O=C(O)C(=O)O`, -63.6%; that for `CC1=C(C(=O)Nc2ccccn2)C(c2ccc3c(c2)OCO3)C2=C(CC(C)(C)CC2=O)N1` (stereo not drawn), 10.4%.

As to `CN1CCN(C(=O)/C=C\c2ccc(Cl)cc2)CC1`, the “hERG current change (%, negative = inhibition) at 10uM” value is recorded as -41%. The same measure for `Cc1cc(Br)ccc1NC(=O)C1C2CCC(O2)C1C(=O)O` (stereo not drawn): 13.7%; for `COc1ccc(C(=O)Cn2cnc3ccccc3c2=O)cc1OC`: 18.3%; for `O=C(CSc1nnc(-c2ccc(F)cc2)c2ccccc12)Nc1cccc(Cl)c1`: -5.49%. The result for `O=C(/C=C/c1ccccc1Cl)NCc1cccs1` reads -14.4%; that for `COc1cccc(-c2cc3onc(-c4ccccc4)c3c(=O)n2C)c1`, 3.57%; that for `Cc1c(N2C(=O)C(=O)/C(=C(/O)c3ccc(Cl)cc3)C2c2ccccc2)c(=O)n(-c2ccccc2)n1C` (stereo not drawn), 1.57%. The result for `O=[N+]([O-])c1ccc(O)c(-c2nc(-c3ccccc3)c(-c3cccs3)[nH]2)c1` reads -4.95%; that for `COc1ccc(-c2nc(CS(=O)(=O)CC(=O)NCc3ccccc3Br)c(C)o2)cc1`, -6.8%; that for `O=c1oc2ccccc2c(NC2CCCCC2)c1NS(=O)(=O)c1ccc(Cl)cc1`, 5.72%.

`CCn1cc(CN2CCN(Cc3ccc(C)o3)C(CCO)C2)c2ccccc21` (stereo not drawn): the “hERG current change (%, negative = inhibition) at 10uM” value is given as -2.18%. The same measure for `COc1ccc(C)cc1NC(=O)CCS(=O)(=O)c1ccc2c(c1)oc(=O)n2C`: 6.76%; for `COc1cccc(N2CC(O)=C(c3nc4ccccc4s3)C2=N)c1`: -5.79%; for `CC1C(=O)N2CCCc3cc(NC(=O)c4ccccc4Br)cc1c32` (stereo not drawn): 3.06%. The result for `CC1(C)Cc2cccc(C(=O)Nc3ccncc3)c2O1` reads -13.8%; that for `O=C([O-])C(CCCCNS(=O)(=O)c1ccc(F)cc1)NS(=O)(=O)c1ccc(F)cc1.[K+]` (stereo not drawn), 20.3%; that for `COc1ccc(CN2C(=O)C(C)S/C2=N/N=C/c2ccco2)cc1` (stereo not drawn), 6.37%. As to `O=c1cc(-c2ccc(Br)cc2)[nH][nH]1`, the “hERG current change (%, negative = inhibition) at 10uM” value stood at 21.1%. In the case of `NNC(=O)c1sc2cc(C(F)(F)F)cnc2c1-c1ccccn1`, the “hERG current change (%, negative = inhibition) at 10uM” value was determined as 14.8%. The same measure for `Cc1ccc(C)c(CN2C(=O)CSc3ccc(C(=O)NCC(C)CN4CCC(C)CC4)cc32)c1` (stereo not drawn): -75.8%. The result for `CCn1nc(C)c(CNC(=O)C2CCC(=O)N(CCc3ccc(Cl)cc3)C2)c1C` (stereo not drawn) reads -21.6%; that for `O=c1c(/C=N\NS(=O)(=O)c2ccccc2)coc2ccc(Cl)cc12`, 0.0815%.
